Reference: PubChem BioAssay AID686979 (National Center for Advancing Translational Sciences (NCATS), 2013)
“And” between values parts separate entries of the source, which are not always exact repeats. Equal entries are not always repeated. The whole screen tested about 420,000 compounds, of which about 50,000 (12%) were called active. The inconclusive results got no clear call from the source; some entries with a clear call stand among them for comparison. Calls come from the whole dose curve; as a rule, active = well fitted inhibition curve with a large enough effect; inconclusive = small, poorly fitted or top-dose-only effect; inactive = flat fitted curve, though single readings scatter. Potencies of inconclusive entries are left out as doubtful fits. More than one record can exist for a structure, and the calls need not agree.

assay: qHTS for Inhibitors of human tyrosyl-DNA phosphodiesterase 1 (TDP1): qHTS in cells in presence of CPT; settings: chicken DT40 Tdp1-/-;hTDP1 cells + 20 nM CPT, ATP luminescence, 48 h; activity change, negative = growth inhibition: at 46.2 µM (top of the series) unless noted; note: nearly all actives have a fitted effect of over 55% in size
Summary of the method: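 Chicken DT40 Tdp1-/- cells complemented with human TDP1, 400 cells/well, exposed to compounds plus 20 nM camptothecin for at least 48 h at 37 C; viability read as ATP content by CellTiter-Glo luminescence.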
% is set by controls: 0 for no effect and ±100 for the full control effect; potency is the fitted concentration of half-maximal effect; tags give direction and shape of the fitted curve.

Row | SMILES | Potency | activity change, negative = growth inhibition
1 | CCOc1ccc(NC(=S)Nc2ccccc2C2(C)CC2)cc1 | inconclusive [inhibitor, single point] | –
2 | Clc1ccc(COn2c(-c3ccccc3)nc3ccccc32)cc1 | inconclusive [inhibitor, single point] | –
3 | O=[N+]([O-])c1ccc(Oc2ccc(F)cc2)c2ccncc12 | inactive | –
4 | Cc1cc(=O)n(Cc2c(F)cccc2Cl)c2c1c(C)nn2-c1cccc(F)c1 | inactive | –
5 | CCOC(=O)N1CCN(C(=O)/C(=C/c2ccc(Br)cc2)NC(=O)c2ccc(OC)cc2)CC1 | inconclusive [inhibitor, single point] | –
6 | CN(CC(=O)Nc1ccccc1Br)C(=O)C(Cc1ccccc1)NC(=O)c1ccccc1 (centres undefined) | inconclusive [inhibitor, single point] | –
7 | Cc1ccc(Cl)cc1N1CCN(C(=O)CCS(=O)(=O)c2ccc3c(c2)NC(=O)CO3)CC1 | inconclusive [inhibitor, single point] | –
8 | N#C/C(=N\Nc1ccc(S(=O)(=O)N2CCCCC2)cc1)C(N)=S | inconclusive [inhibitor, single point] | –
9 | COc1ccc(NC(=O)CSc2oc(-c3ccco3)nc2S(=O)(=O)c2ccc(C)cc2)c(OC)c1 | inconclusive [inhibitor, single point] | –
10 | COc1ccccc1C(=O)Nc1cccc(C(=O)OCc2cc(=O)n3c4c(sc3n2)CCCC4)c1 | inconclusive [inhibitor, single point] | –
11 | O=[N+]([O-])c1ccc(N2CCCC2)cc1NCc1ccccc1 | inactive | –
12 | COc1ccc(CNC(=O)N2[C@H]3CC[C@@H]2C=C(c2ccc(F)cc2OCc2ccccc2)C3)cc1OC | active: 8.2 µM | –
13 | CC1(C(=O)NS(=O)(=O)c2ccc(Br)cc2)CCN1C(=O)CCc1ccccc1 (centres undefined) | inactive | –
14 | COc1ccc(-c2cn3cc(Cl)ccc3n2)cc1OC | inactive | –
15 | Cc1nc(CSc2nsc(C)c2C#N)cs1 | inactive | –
16 | CCN(CC)C(=O)c1sc(NC(=O)c2cccnc2)c(C(=O)OC)c1C | inactive | –
17 | CCOC(=O)c1ccccc1NC(=O)NCc1c(-n2cccc2)sc2c1CCCC2 | inconclusive [inhibitor, partial curve] | –
18 | CCN1CCN(CCNC(=O)c2ccc3c(c2)NC(=O)/C(=C\c2ccc(OC)c(OC)c2)S3)CC1 | inconclusive [inhibitor, single point] | –
19 | CC1(C)Oc2ccc3ccc(=O)oc3c2/C(=C/N)C1=O | inconclusive [inhibitor, single point] | –
20 | CCCN(CCC)S(=O)(=O)c1ccc(C(=O)Nc2nnc(-c3cc(OC)cc(OC)c3)o2)cc1 | active: 5.8 µM | –
21 | CN(C)S(=O)(=O)c1ccc2c(c1)N(CC(=O)Nc1cccc(C(F)(F)F)c1)C(=O)CS2 | inconclusive [inhibitor, single point] | –
22 | COc1ccc(OC)c(Nc2nc(=O)c3cccnc3s2)c1 | active: 20.6 µM | –
23 | CC1CCC/C=C/C(=O)c2c(O)cc(O)cc2CC(=O)O1 (centres undefined) | active: 4.61 µM | –

Row | SMILES | Potency | activity change, negative = growth inhibition
24 | CN(c1ccccc1C(=O)Nc1ccc(S(=O)(=O)N2CCOCC2)cc1)S(=O)(=O)c1ccccc1 | inconclusive [inhibitor, partial curve] | –
25 | COC(=O)c1ccc(C(=O)Nc2cc(Cl)ccc2Cl)cc1NC(=O)c1ccccc1C | inconclusive [inhibitor, partial curve] | –
26 | Cc1c(CNC(C)CCc2ccccc2)c(C(=O)O)c(C)n1Cc1ccc(F)cc1 (centres undefined) | inactive | –
27 | CC(C)Oc1ccc(F)cc1-c1cc(C(=O)NCc2ccc(C(F)(F)F)cc2)[nH]n1 | active: 16.4 µM | –
28 | CCn1c(O)c(/C=N/N=C2CCCCC2)c2cc(C3=NNC(=O)CC3)ccc21 | active: 8.2 µM | –
29 | COc1cc(Cn2c3ccc(NC(=O)CC(C)c4ccccc4)cc3c(=O)n2C)ccc1F (centres undefined) | inconclusive [inhibitor, partial curve, poor fit] | –
30 | Cc1ccnc(NC(=O)CCC(=O)N(CC(=O)NCc2ccc(F)cc2)Cc2ccccc2)c1 | inactive | –
31 | CC(C)CC1(C(=O)NCc2cc(F)cc(C(F)(F)F)c2)C=CCN1C(=O)c1ccccc1 (centres undefined) | inconclusive [inhibitor, single point] | –
32 | CNC(=O)C1CC(=O)N(c2ccc(C)cc2)C1 (centres undefined) | inactive | –
33 | Cc1ccc(-c2cc(C(=O)N3CCCc4ccccc43)c3ccccc3n2)cc1 | inconclusive [inhibitor, single point] | –
34 | C[C@H](CO)N1C[C@H](C)[C@@H](CN(C)C(=O)C2CCCCC2)OCc2cnnn2CCCC1=O | inactive | –
35 | COc1ccc(NC(=O)CS(=O)CC(=O)N2CCN(C3CCCC3)CC2)cc1 (centres undefined) | inactive | –
36 | O=C(Nc1ccccc1-c1nnc(SCc2ccccc2)o1)c1ccccc1 | inconclusive [inhibitor, single point] | –
37 | Cn1c(COc2ccccc2)nnc1SCc1cc(=O)[nH]c2ccccc12 | inconclusive [inhibitor, partial curve] | –
38 | Cc1cccc(N2CCN(C(=O)CCS(=O)(=O)c3ccc4c(c3)NC(=O)C(C)S4)CC2)c1C (centres undefined) | inconclusive [inhibitor, single point] | –
39 | Cc1ccc(NC(=S)NCCc2c[nH]c3ccccc23)cc1 | inconclusive [inhibitor, single point] | –
40 | CCCc1cc(=O)n2c(C(=O)Nc3ccc(OCC)cc3)c(C(=O)Nc3ccc(C)cc3)sc2n1 | inconclusive [inhibitor, single point] | –
41 | Cc1nn2c(CN(C(=O)c3ccco3)c3ccccc3)nnc2c2ccccc12 | inconclusive [inhibitor, single point] | –
42 | OCCCn1c(CCNc2nc(-c3ccc(Cl)cc3)cs2)nc2cc(C(F)(F)F)ccc21 | inconclusive [inhibitor, single point] | –
43 | O=c1[nH]cnc2c1ncn2C1OC(CO)C(O)C1O (centres undefined) | inactive and active: 580 nM | –
44 | c1ccc(-c2sc3ccccc3c2-c2ccc(OCCN3CCCCC3)cc2)cc1 | inconclusive [inhibitor, single point] | –
45 | Cc1ccc2c(c1)c1c(c(=O)n(-c3cccc(Cl)c3)c(=O)n1CC(=O)NCCC1=CCCCC1)n2C | inactive | –
46 | Cc1cccc(C)c1OCC(O)Cn1ccnc1C (centres undefined) | inconclusive [inhibitor, partial curve, poor fit] | –

Row | SMILES | Potency | activity change, negative = growth inhibition
47 | CCn1c(SCc2ccccc2C)nc(=O)c2c(C(=O)OC)cc(C3CC3)nc21 | active: 11.6 µM | –
48 | Cc1ccccc1-c1cc(C(=O)NCC2CC2)nn1CC1CC(c2cccc([N+](=O)[O-])c2)=NO1 (centres undefined) | inconclusive [inhibitor, single point] | –
49 | CC(C)Oc1ccc(CNC(=O)CCC(=O)N2CC(C)Sc3ccccc32)cc1 (centres undefined) | active: 16.4 µM | –
50 | CCOC(=O)C1CCN(C(=O)c2ccc(SC)cc2OC)CC1 | inconclusive [inhibitor, single point] | –
51 | CC(=O)c1c(C)[nH]c(C(=O)OCC(=O)NCCCc2ccccc2)c1C | inconclusive [inhibitor, single point] | –
52 | CC(C)(C)C(=O)Nc1c2c(nn1-c1ccccc1)CSC2 | inconclusive [inhibitor, partial curve] | –
53 | O=C(Nc1nnc(-c2cc(Cl)ccc2Cl)o1)c1ccc2c(c1)OCCO2 | inconclusive [inhibitor, single point] | –
54 | COC(=O)c1sccc1-c1ccc(C(=O)Nc2cccc(Cl)c2)o1 | inconclusive [inhibitor, single point] | –
55 | COc1ccc(-c2nc(Cn3c(SCc4cccc(F)c4)nc4ccncc43)c(C)o2)cc1OC | inconclusive [inhibitor, single point] | –
56 | C(=Nc1ccc(/C=C/c2ccnc3ccccc23)cc1)c1cccs1 | inconclusive [inhibitor, single point] | –
57 | NS(=O)(=O)c1ccc(NC(=O)COC(=O)c2ccc([N+](=O)[O-])s2)cc1 | inactive | –
58 | O=c1cc(CSc2ncn[nH]2)[nH]c2ccc(F)cc12 | inactive | –
59 | C/C(=N/Nc1ccc(F)cc1)c1ccc(Cl)s1 | inactive | –
60 | CCN(CC)C(=O)[C@H]1CC(CC(=O)NCc2ccc(OC)c(OC)c2)C(=O)N2CCc3c([nH]c4ccccc34)[C@]12C (some centres undefined) | inconclusive [inhibitor, single point] | –
61 | CCCc1nc2ccc(NC(=O)c3ccco3)cc2c(=O)n1Cc1ccccc1Cl | inconclusive [inhibitor, single point] | –
62 | Cn1c(=NC(=O)CSCC(=O)N2CCCC2)sc2ccccc21 | inactive | –
63 | O=C(Cc1cccc(NC(=O)C2CCCN(C(=O)C3CCCC3)C2)c1)Nc1ccc(C(=O)N2CCCCC2)cc1 (centres undefined) | inconclusive [inhibitor, single point] | –
64 | COc1cccc(Nc2ccc(Nc3cccc(OC)c3)nn2)c1 | inconclusive [inhibitor, single point] | –
65 | FC(F)(F)c1nnc(-c2ccccc2)nc1Sc1ccccc1 | active: 14.6 µM | –
66 | CCOC(=O)C1CCC(CN(Cc2ccc(OC)cc2)S(=O)(=O)c2ccc(F)c(C(=O)Nc3ccc(C)c(C)c3)c2)CC1 (centres undefined) | – | inconclusive: -30.5% [inhibitor]
67 | CCCCOc1ccc(C(=O)NNC(=S)NC(=O)CC)cc1 | active: 4.61 µM | –
68 | COc1ccccc1CNc1nc(NCc2ccc(C)cc2C)c2sccc2n1 | active: 4.61 µM | –
69 | CCN(CC)S(=O)(=O)c1ccc2c(c1)N(CC(=O)N1CCN(c3cccc(Cl)c3)CC1)C(=O)CO2 | active: 16.4 µM | –
